In patent US20180177872A1, “Combination of PD-1 antagonist with an EGFR inhibitor” (priority 2015, published 2018):

Tests used:
human PD-1 protein = human PD-1 protein (Homo sapiens, UniProt Q15116); assay: Biacore binding on human PD-1 protein; conditions: Biacore method; for Kd: rate constant
Procedure: The binding of an exemplary humanized anti-PD-1 antibodies including Clone B and Clone E as shown in Table 1 on human PD-1 protein was measured using Biacore method.

cynomolgus PD-1 protein = assay: Biacore binding to cynomolgus PD-1
[1] = target: T1, human PD-1-expressing 300.19 cells (Homo sapiens, UniProt Q15116); assay: FACS binding on human PD-1-expressing 300.19 cells; conditions: FACS analysis; compared to a human IgG4 isotype control
T1 construct: expressed in transfected cells; host or cells: 300.19 cells
Procedure: The binding of the same humanized anti-PD-1 antibody on human PD-1-expressing 300.19 cells was measured using FACS analysis.

[2] = tested on: cynomolgus PD-1-expressing 300.19 cells; assay: Binding to cynomolgus PD-1-expressing 300.19 cells
mouse PD-1 = target: T2, mouse PD-1 (Mus musculus, UniProt Q02242); assay: Cross-reactivity with mouse PD-1; assay type: binding
T2 sequence (Q02242 25-288): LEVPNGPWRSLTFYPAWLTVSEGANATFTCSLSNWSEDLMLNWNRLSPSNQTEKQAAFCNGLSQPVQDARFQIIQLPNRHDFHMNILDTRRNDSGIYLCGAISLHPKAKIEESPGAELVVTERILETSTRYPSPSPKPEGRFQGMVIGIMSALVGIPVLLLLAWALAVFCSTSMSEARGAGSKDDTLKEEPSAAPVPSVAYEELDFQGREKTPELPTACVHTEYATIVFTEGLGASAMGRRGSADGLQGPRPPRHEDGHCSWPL

[3] = target: T3, PD-L1 binding to human PD-1 (Homo sapiens, UniProt Q15116); assay: Blocking of PD-L1 binding on PD-1-expressing 300.19 cells; assay type: cell-based
T3 construct: expressed in transfected cells; host or cells: 300.19 cells
Procedure: The blocking capacity of the mAbs was evaluated in a competition binding assay using a constant concentration of PD-L1-huIgG1 Fc fusion protein or PD-L2-huIgG1 Fc fusion protein, serial dilutions of the mAbs to be tested, and PD-1-expressing 300.19 cells.
Incubation was at 4° C. for 30 min. Bound ligand fusion proteins were detected with PE-conjugated F(ab′)2 fragment of goat anti-human IgG which doesn't recognize IgG4 mAbs (Southern Biotech 2043-09), and flow cytometry.

[4] = target: T4, PD-L2 binding to human PD-1 (Homo sapiens, UniProt Q15116); assay: Blocking of PD-L2 binding on PD-1-expressing 300.19 cells; assay type: cell-based
T4 construct: expressed in transfected cells; host or cells: 300.19 cells

[5] = Iso-electric focussing (Novex IEF) analysis; assay type: physicochemical; conditions: estimated from staining positions against the IEF 3-10 marker
Procedure: Non-reduced samples of Protein A purified antibody were electrophoresed as described below.
5 μg of Protein A purified samples were electrophoresed on a 1.0 mm Novex pH 3-10 gradient gel (Invitrogen, EC66552BOX) using manufacturers recommended running conditions. A 10 μl aliquot of IEF pH 3-10 markers (Invitrogen, 39212-01) was included on the gel. Once electrophoresed, gels were fixed with 10% TCA solution for 30 min and then stained with InstantBlue (TripleRed, ISB01L) over night at room temperature. Images of the stained gels were analysed on a BioSpectrum Imaging System (UVP).

Sequence of human PD-1 protein (Q15116 25-288): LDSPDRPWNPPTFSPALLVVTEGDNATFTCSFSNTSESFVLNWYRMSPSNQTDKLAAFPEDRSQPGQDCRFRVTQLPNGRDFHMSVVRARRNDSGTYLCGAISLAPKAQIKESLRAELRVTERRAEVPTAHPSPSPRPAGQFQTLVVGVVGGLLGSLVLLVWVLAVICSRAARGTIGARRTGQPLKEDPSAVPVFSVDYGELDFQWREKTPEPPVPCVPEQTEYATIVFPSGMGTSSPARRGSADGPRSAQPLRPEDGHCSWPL
T1 sequence (Q15116 25-288): as above
T4 sequence (Q15116 25-288): as above
T3 sequence (Q15116 25-288): as above

B1: exemplary humanized anti-PD-1 antibody: exemplary humanized anti-PD-1 antibody (human IgG4) of Example 1; clone not specified (antibody)
heavy: EVQLVQSGAEVKKPGESLRISCKGSGYTFTTYWMHWVRQATGQGLEWMGNIYPGTGGSNFDEKFKNRVTITADKSTSTAYMELSSLRSEDTAVYYCTRWTTGTGAYWGQGTTVTVSSASTKGPSVFPLAPCSRSTSESTAALGCLVKDYFPEPVTVSWNSGALTSGVHTFPAVLQSSGLYSLSSVVTVPSSSLGTKTYTCNVDHKPSNTKVDKRV[human IgG4 Fc with S228P (EU numbers) not spelt out]
light: EIVLTQSPATLSLSPGERATLSCKSSQSLLDSGNQKNFLTWYQQKPGQAPRLLIYWASTRESGVPSRFSGSGSGTDFTFTISSLEAEDAATYYCQNDYSYPYTFGQGTKVEIKRTVAAPSVFIFPPSDEQLKSGTASVVCLLNNFYPREAKVQWKVDNALQSGNSQESVTEQDSKDSTYSLSSTLTLSKADYEKHKVYACEVTHQGLSSPVTKSFNRGEC
Ka (human PD-1 protein): 278000 M⁻¹ s⁻¹
Kd (human PD-1 protein): 0.000213 s⁻¹
affinity to cynomolgus PD-1 protein (cynomolgus PD-1 protein): high affinity
binding to human PD-1 [1]: high affinity
affinity to cynomolgus PD-1-expressing 300.19 cells [2]: high affinity
cross-reactivity with mouse PD-1 (mouse PD-1): not cross-reactive
blocking of PD-L1 binding [3]: blocked
blocking of PD-L2 binding [4]: blocked

B2: Clone B: humanized anti-PD-1 antibody BAP049 clone; sequences in Table 1 (antibody)
heavy: EVQLVQSGAEVKKPGESLRISCKGSGYTFTTYWMHWVRQATGQGLEWMGNIYPGTGGSNFDEKFKNRVTITADKSTSTAYMELSSLRSEDTAVYYCTRWTTGTGAYWGQGTTVTVSSASTKGPSVFPLAPCSRSTSESTAALGCLVKDYFPEPVTVSWNSGALTSGVHTFPAVLQSSGLYSLSSVVTVPSSSLGTKTYTCNVDHKPSNTKVDKRV[human IgG4 Fc with S228P (EU numbers) not spelt out]
light: EIVLTQSPATLSLSPGERATLSCKSSQSLLDSGNQKNFLTWYQQKPGKAPKLLIYWASTRESGVPSRFSGSGSGTDFTFTISSLQPEDIATYYCQNDYSYPYTFGQGTKVEIKRTVAAPSVFIFPPSDEQLKSGTASVVCLLNNFYPREAKVQWKVDNALQSGNSQESVTEQDSKDSTYSLSSTLTLSKADYEKHKVYACEVTHQGLSSPVTKSFNRGEC
Ka (human PD-1 protein): 278000 M⁻¹ s⁻¹
Kd (human PD-1 protein): 0.000213 s⁻¹
Basic charge isoforms (pI) [5]: 7.8
pI of predominant charge isoform [5]: 7.75
